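48-hour exposure; five concentrations; linearly interpolated endpoints. Abbreviation: GI50, concentration required for 50% inhibition of growth. TGI: concentration producing complete growth inhibition.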 Peptide text beside a SMILES is read from it.
The compounds below were run on NCI-H322M lung (assay: NCI anticancer screen, dose series, 48 h).

SMILES	GI50	TGI
C#CCn1cccc1CNc1ccc(OC)cc1	> 100 µM	> 100 µM
CC(Nc1c(C#N)cnc2ccc(-c3cncc(O)c3)cc12)c1ccccc1 (configuration not stated)	1.75 µM	7.74 µM
CC(=O)NC(C)(C)C(=O)N1CCC[C@H]1C(=O)NC(C)(C)C(=O)N[C@@H](C)C(=O)NC(C)(C)C(=O)NC(C)(C)C(=O)N[C@@H](CCC(N)=O)C(=O)NC(C)(C)C(=O)N[C@H](C(=O)NC(C)(C)C(=O)NCC(=O)N[C@@H](CC(C)C)C(=O)NC(C)(C)C(=O)N1CCC[C@H]1C(=O)N[C@H](C(=O)NC(C)(C)C(=O)NC(C)(C)C(=O)N[C@@H](CCC(N)=O)C(=O)N[C@@H](CCC(N)=O)C(=O)N[C@H](CO)Cc1ccccc1)C(C)C)C(C)C (HELM PEPTIDE1{[ac].[Aib].P.[Aib].A.[Aib].[Aib].Q.[Aib].V.[Aib].G.L.[Aib].P.V.[Aib].[Aib].Q.Q.[OC[C@H](Cc1ccccc1)N[*:1]]}$$$$V2.0)	> 4.25 µM	> 4.25 µM
CCNC(=O)N1CCc2cc(OC)c(OCCc3ccc(OC)cc3)cc2C1c1ccc([N+](=O)[O-])cc1C (configuration not stated)	3.76 µM	> 100 µM
C#Cc1nc(C2=C(C)/C(=N/OCc3ccccc3)CC2)cs1	> 100 µM	> 100 µM
Cc1cc2nc3c4cc(C#N)ccc4n(CCN(C)C)c3nc2cc1C	1.03 µM	5.37 µM

From PubChem BioAssay (NCI)
